Whole data set: some 110,000 compounds, median “z-score” near -0.1, cut for the highest 2% near 2. The list shows a part of the results. Calls of active or inactive are those of the source.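 How the source made its calls: active means z-score in the third read window above 3 or below -3; inactive means the rest.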
These compounds were tested against Metabotropic glutamate receptor 8 (Rattus norvegicus) (UniProt P70579) (assay: rat mGluR8 modulators via GIRK flux, primary screen, cell-based, thallium flux, HTS (AID 488969)). Settings: HEK293 rat mGluR8, GIRK (G protein-gated inwardly rectifying potassium channel) thallium flux, FluoZin2; at 10 µM; stronger effect = higher value; submaximal glutamate (EC20) added with thallium.
UniProt P70579, sequence (P70579 whole entry, looked up): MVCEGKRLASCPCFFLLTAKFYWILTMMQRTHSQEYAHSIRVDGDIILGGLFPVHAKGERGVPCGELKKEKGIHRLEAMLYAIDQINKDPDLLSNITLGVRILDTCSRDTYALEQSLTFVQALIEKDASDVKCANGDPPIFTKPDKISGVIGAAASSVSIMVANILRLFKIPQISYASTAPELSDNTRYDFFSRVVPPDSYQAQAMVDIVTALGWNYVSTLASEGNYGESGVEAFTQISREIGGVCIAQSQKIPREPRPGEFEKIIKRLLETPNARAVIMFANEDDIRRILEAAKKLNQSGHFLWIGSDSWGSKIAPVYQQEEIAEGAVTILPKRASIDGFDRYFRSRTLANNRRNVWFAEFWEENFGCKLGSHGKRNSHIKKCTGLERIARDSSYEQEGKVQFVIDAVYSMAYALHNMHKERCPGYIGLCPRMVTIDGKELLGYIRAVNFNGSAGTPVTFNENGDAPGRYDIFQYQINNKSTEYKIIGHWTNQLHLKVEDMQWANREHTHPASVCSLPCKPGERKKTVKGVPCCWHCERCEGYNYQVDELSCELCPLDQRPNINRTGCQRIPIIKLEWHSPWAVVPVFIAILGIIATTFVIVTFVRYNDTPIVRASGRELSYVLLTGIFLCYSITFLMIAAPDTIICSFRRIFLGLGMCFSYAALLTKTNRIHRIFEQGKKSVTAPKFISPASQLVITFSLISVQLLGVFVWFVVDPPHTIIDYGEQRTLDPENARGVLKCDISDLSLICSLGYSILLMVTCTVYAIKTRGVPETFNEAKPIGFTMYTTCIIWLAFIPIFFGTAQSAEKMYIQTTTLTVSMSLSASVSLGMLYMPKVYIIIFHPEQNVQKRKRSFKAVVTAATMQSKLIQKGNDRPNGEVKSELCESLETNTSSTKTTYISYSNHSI

In order of falling z-score:
1. Nn1c(SCC(=O)Nc2ccccc2)nnc1-c1cccnc1  1.78
2. CC1CCN(C(=O)Nc2cccc(NC(=O)N3CCC(C)CC3)c2)CC1  1.36
3. C/C(Cn1cnc([N+](=O)[O-])n1)=N\NC(=O)c1cccnc1  1
4. CCOc1cccc(CNCCO)c1OCc1ccc(Cl)cc1Cl  0.93
5. CCOc1ccc(-c2nnn(CC(=O)N3CCCC3)n2)cc1OCC  0.874
6. Clc1ccc2c(c1)C(C1=NCCN1)c1ccccc1CS2 (stereo not given)  0.865
7. Cc1ccccc1C1CC(c2ccc(Br)cc2)Nc2nc(N)nn21 (stereo not given)  0.803
8. Cc1cc(C)cc(NC(=O)C2CCCN(S(=O)(=O)c3cnc[nH]3)C2)c1 (stereo not given)  0.76
9. Nc1cc(C(=O)O)ccc1N1CCCCC1  0.666
10. CCOc1[nH]n(-c2ccccc2)c(=O)c1C=Nc1ccc(Cl)cc1  0.655
11. CCOC(=O)c1c(C)n(C)c2ccc(OC)c(NC(=O)CN3CCN(C(=O)c4ccco4)CC3)c12  0.582
12. COc1ccc(C(=O)Nn2c(C3CCC3)nc3ccccc3c2=O)c(OC)c1  0.565
13. COCCCNC(=O)c1ccc(N2CCCC2)c(NS(=O)(=O)c2ccc(C)cc2)c1  0.547
14. N#CC1=C(N)OC2=C(C(=O)CCC2)C1c1ccsc1 (stereo not given)  0.481
15. CCOC(=O)c1[nH]c(C)c(C(=O)OCC(=O)NC(=O)NC(C)(C)C)c1C  0.435
16. CCN1CCN(C(=O)c2ccccc2N(Cc2ccccc2)S(=O)(=O)c2ccc(C)cc2)CC1  0.407
17. Clc1ccccc1CN(Cc1ccco1)Cc1nnnn1C1CCCC1  0.401
18. COC(=O)c1ccc(C)c(NS(=O)(=O)c2ccc(C)c([N+](=O)[O-])c2)c1  0.382
19. CCC(C)c1ccc(NC(=O)C2CC2)cc1 (stereo not given)  0.353
20. O=C(COc1ccc(Br)cc1)N1CCOCC1  0.263
21. CC(C)CCn1nnnc1C(c1ccc(F)cc1)N1CCN(C(=O)c2ccco2)CC1 (stereo not given)  0.229
22. C=CCc1ccc(OCCOc2ccc(/C=N/n3cnnc3)cc2OCC)c(OC)c1  0.211
23. COCCn1c(Cc2ccccc2)nnc1SCC(=O)Nc1cc(C)on1  0.197
24. CN1CCN(C(=O)c2ccccc2N(Cc2ccccc2)S(C)(=O)=O)CC1  0.174
25. O=C(OCc1csc(Nc2ccccc2)n1)c1ccc(Cl)cc1  0.122
26. O=c1cc(N2CCCCC2)c(-c2ccccc2)nn1Cc1ccc(Cl)cc1Cl  0.0967
27. O=C(Nc1cccnc1)c1cnn2cccnc12  0.0818
28. CCOC(=O)CCCn1ncn2c(cc3occc32)c1=O  0.0743
29. COc1ccc(OCCSc2ncn[nH]2)cc1  0.0619
30. CC(=O)Nc1ccc(Br)cc1C(=O)C(=O)O  0.0606
31. O=C(NN1C(=O)c2ccc3c4c(ccc(c24)C1=O)CC3)c1ccc(Br)cc1  0.0577
32. CCC(=O)NCCc1nc2ccccc2n1CC  0.0557
33. COc1ccc(Cn2nnnc2C(c2cccs2)N2CCSCC2)cc1 (stereo not given)  0.0357
34. CCOC(=O)N1CCC(N(C(=O)Nc2ccccc2)C(C)CC)CC1 (stereo not given)  0.0228
35. CC(=O)Nc1nonc1-c1nc2ccccc2n1Cc1ccccc1  0.0193
36. CCC(=O)Nc1cccc(-n2nnnc2SCC(=O)c2ccc(C)c(C)c2)c1  0.0184
37. CC(=O)NC1(c2cccc(F)c2)CCN(CC(=O)NC(C)C)CC1  0.0156
38. COc1ccc(-n2c(N)c(Br)c(=O)[nH]c2=O)cc1  0.015
39. COC(=O)Nc1ccc(S(=O)(=O)Nc2ccc(C)cc2)cc1  0.0148
40. O=C(Cc1ccccc1)Nc1nnc(-c2cccc([N+](=O)[O-])c2)s1  0.0139
41. CCN(CC)S(=O)(=O)c1ccc(NCC2COc3ccccc3O2)c([N+](=O)[O-])c1 (stereo not given)  -0.00635
42. S=c1[nH]nc(-c2ccncc2)n1/N=C/c1ccccc1  -0.00784
43. O=C(O)C1CC(c2cccc(Br)c2)=NO1 (stereo not given)  -0.0142
44. O=C(Nc1ccccc1N1CCOCC1)c1cccc([N+](=O)[O-])c1  -0.0219
45. Cc1ccccc1SCC(=O)Nc1cccc(C#N)c1  -0.026
46. CCCOc1ccccc1C1CC(=O)Nc2cc3c(cc21)OCCO3 (stereo not given)  -0.0266
47. N#Cc1ccccc1CSc1nc(N2CCCCC2)nc(N2CCCCC2)n1  -0.0404
48. N#CC1=C(N)Nc2nc3ccccc3n2C1c1ccc(F)cc1 (stereo not given)  -0.0445
49. O=C(NCc1ccc2c(c1)OCO2)C1CCN(S(=O)(=O)c2ccc(Br)s2)CC1  -0.0496
50. CCOc1ccc(C(O)c2nccn2C)cc1 (stereo not given)  -0.0577
51. CCOc1ccc(NC(=O)COC(=O)Cn2cnnn2)cc1OCC  -0.0611
52. O=C(CCc1ccccc1)Nc1ccc2c(c1)OCCO2  -0.0648
53. CC(C)c1ccc(NCCC(=O)c2ccc(Br)cc2)cc1  -0.0651
54. Cc1nc2c(C(=O)N3CCN(C)CC3)cnn2c(C)c1Cc1ccc(Cl)cc1  -0.0698
55. Cc1cc(C)n2nc(C(=O)Nc3nccs3)nc2n1  -0.0873
56. CC(C)(C)c1ccc(C(=O)Oc2ccc3c(c2)OCC3=O)cc1  -0.0889
57. CC(OC(=O)Cc1coc2ccc3ccccc3c12)C(=O)Nc1ncc(Cl)cc1Cl (stereo not given)  -0.092
58. COc1ccc(OC)c(C(=O)CSc2nnc(-c3cccs3)o2)c1  -0.111
59. O=C(CN1C(=O)NC2(CCCCCCC2)C1=O)NCc1ccc2c(c1)OCO2  -0.128
60. Cc1ccc(NC(=O)c2cc(-n3cnnc3)ccc2Cl)c(C)c1  -0.139
61. Cc1ccc(S(=O)(=O)n2cnc3cc([N+](=O)[O-])ccc32)c(C)c1C  -0.143
62. COc1ccc(-n2nc3c(c2NC(=O)c2c(F)cccc2Cl)CS(=O)C3)cc1 (stereo not given)  -0.143
63. COCc1ccccc1Cn1cnc2c1c(=O)n(C)c(=O)n2C  -0.16
64. COc1ccc(C)cc1NS(=O)(=O)c1ccc(NS(=O)(=O)c2ccc(NC(C)=O)cc2)cc1  -0.162
65. COc1ccc(-n2nc(C(=O)NCC(=O)NCc3ccc(F)cc3)c3ccccc3c2=O)c(OC)c1  -0.163
66. COc1ccc(NC(=S)NNC(=O)C(C)n2nc(C)c([N+](=O)[O-])c2C)cc1 (stereo not given)  -0.173
67. Cc1ccc(/C=C/C2=NN(Cc3ccc(Cl)c(Cl)c3)C(=O)CC2)cc1  -0.176
68. COc1ccc(C2=NN(C(=S)Nc3ccccc3)C(c3ccccc3)C2)cc1 (stereo not given)  -0.177
69. CNC(=O)CN(c1ccc(C(C)C)cc1)S(C)(=O)=O  -0.184
70. COCCn1nc2cc(C(=O)NCC34CC5CC(CC(C5)C3)C4)ccc2c1OC  -0.188
71. CCc1nnc(NC(=O)[C@@H](NC(=O)c2cccc(C)c2)C(C)C)s1  -0.2
72. COc1ccc(S(=O)(=O)N(C(=O)c2ccco2)c2cc3sc(=O)oc3c3ccccc23)cc1  -0.202
73. Cn1c(=O)n(Cc2ccccc2)c(=O)c2c1nc(NCC1CCCO1)n2Cc1ccccc1 (stereo not given)  -0.202
74. Cc1ccc(Nc2nc(N)c([N+](=O)[O-])c(N3CCOCC3)n2)cc1  -0.21
75. CCn1nc2cc(C(=O)NCCc3cccs3)ccc2c1OC  -0.218
76. Nc1ccc(Oc2ccc3nc(-c4ccccc4)c(-c4ccccc4)nc3c2)cc1  -0.244
77. COc1cccc(C(=O)Nc2cc([N+](=O)[O-])ccc2N2CCN(C)CC2)c1  -0.261
78. CCC(C)NC(=O)c1ccccc1NC(=O)c1ccccc1N(C)S(C)(=O)=O (stereo not given)  -0.269
79. CCCCn1nc(C(=O)N2CCc3ccccc32)c2ccccc2c1=O  -0.297
80. CCCc1nn(C)c(C(=O)Nc2cccc3ccccc23)c1Cl  -0.306
81. O=C(c1cc(C2CC2)on1)N1CCOCC1  -0.341
82. Cc1cccc(-n2ncc3c(N4CCCc5ccccc54)ncnc32)c1  -0.348
83. Cc1cc(C(C#N)c2ccccc2)n2ncnc2n1 (stereo not given)  -0.354
84. COc1ccc(-c2cc(-c3ccc(OC)c(OC)c3)n[nH]2)c(O)c1  -0.365
85. O=C(COC(=O)/C=C/c1ccccc1)NCCC1=CCCCC1  -0.391
86. Cc1ccc(S(=O)(=O)Cn2nnnc2C(C(C)C)N2CCN(Cc3ccco3)CC2)cc1 (stereo not given)  -0.429
87. O=C(OCc1ccco1)c1ccc(S(=O)(=O)N2CCCCC2)cc1  -0.449
88. N#C/C(=C\c1ccc(OCc2ccc(C(=O)O)cc2)cc1)C(=O)N1CCOCC1  -0.463
89. Cc1[nH]c(-c2ccco2)nc1C(=O)O  -0.474
90. CCCCC(=O)Nc1cccc(NC(=O)c2ccc(Br)o2)c1  -0.493
91. COc1ccc(NCc2nnc(SCC(=O)NCc3ccccc3)n2-c2ccccc2OC)cc1  -0.511
92. O=C(CNS(=O)(=O)c1ccccc1)NCC(=O)OCc1ccc(C(=O)c2ccccc2)cc1  -0.608
93. Cc1nnc(Nc2ccc3c(c2)OCO3)c2ccccc12  -0.611
94. CCOC(=O)C1=C(O)CCn2c1nc1ccccc12  -0.633
95. O=C(NC1(C(F)(F)F)C(=O)Nc2c1c(=O)[nH]c(=O)n2Cc1ccco1)C1CCCCC1 (stereo not given)  -0.645
96. CCOC(=O)c1ccc(Nc2nc(C(=O)OCC)nc3ccccc23)cc1  -0.69
97. O=C(Nc1ccccn1)c1ccc(Br)c(S(=O)(=O)N2CCCCC2)c1  -0.7
98. CCN(CC)S(=O)(=O)c1cc(C(=O)OCC(=O)Nc2c(F)cccc2F)ccc1F  -0.74
99. Cc1nn(C(C)C(=O)NNC(=S)Nc2ccc(Cl)cc2)c(C)c1[N+](=O)[O-] (stereo not given)  -0.802
100. CCN(c1ccccc1)S(=O)(=O)c1ccc(Cl)c(C(=O)OCC(=O)c2[nH]c(C)c(C(C)=O)c2C)c1  -0.83
101. CCOc1ccccc1NC(=O)CSc1nnc(Cc2cccn2C)n1-c1ccc(F)cc1  -0.87
102. N#Cc1nc(-c2ccco2)oc1NCc1cccnc1  -0.971
103. C=CCn1c(=O)c2c(nc3n2CCN3c2cccc(Cl)c2C)n(C)c1=O  -0.977
104. Cc1ccc(C(=O)Nc2cccc(C(=O)O)c2)cc1  -1.09
105. COc1ccc(-c2nc(CSCC(=O)NCc3ccco3)c(C)o2)cc1  -1.17
106. Cc1ccccc1CSc1nnc(-c2ccco2)n1Cc1ccco1  -1.94

In the case of `Cc1cccc(NC(=O)NC(C)CCc2ccccc2)c1` (stereo not given), the z-score is reported as active: 4.17.
For `CC(C)n1cc(NC(=O)c2cc(-c3ccccc3)on2)cn1`, the z-score was active: 16.8.
With `CN(C)c1nc2ccccc2c(N)c1-c1ccccc1` the z-score was active: 3.06.
With `Cc1ccccc1C(=O)NNC(=S)NC(=O)c1ccc(Cl)cc1Cl` the z-score was active: 4.35.

Reference: PubChem BioAssay AID488969 (Vanderbilt High Throughput Screening Facility, 2010)
